Common to all, as to assay: two-hybrid; … GAL4 Two-Hybrid System 3, yeast AH109; DBD fusions (pGBKT7) with AD fusions (pGADT7); dilution series on -His -Leu -Trp with 5 mM 3-aminotriazole and on -Ade -His -Leu -Trp (stringent)
Assay [1] concerns the target T1, DRP1A (At5g42080), dynamin-related protein 1A (Arabidopsis thaliana) (UniProt P42697).
T1 sequence: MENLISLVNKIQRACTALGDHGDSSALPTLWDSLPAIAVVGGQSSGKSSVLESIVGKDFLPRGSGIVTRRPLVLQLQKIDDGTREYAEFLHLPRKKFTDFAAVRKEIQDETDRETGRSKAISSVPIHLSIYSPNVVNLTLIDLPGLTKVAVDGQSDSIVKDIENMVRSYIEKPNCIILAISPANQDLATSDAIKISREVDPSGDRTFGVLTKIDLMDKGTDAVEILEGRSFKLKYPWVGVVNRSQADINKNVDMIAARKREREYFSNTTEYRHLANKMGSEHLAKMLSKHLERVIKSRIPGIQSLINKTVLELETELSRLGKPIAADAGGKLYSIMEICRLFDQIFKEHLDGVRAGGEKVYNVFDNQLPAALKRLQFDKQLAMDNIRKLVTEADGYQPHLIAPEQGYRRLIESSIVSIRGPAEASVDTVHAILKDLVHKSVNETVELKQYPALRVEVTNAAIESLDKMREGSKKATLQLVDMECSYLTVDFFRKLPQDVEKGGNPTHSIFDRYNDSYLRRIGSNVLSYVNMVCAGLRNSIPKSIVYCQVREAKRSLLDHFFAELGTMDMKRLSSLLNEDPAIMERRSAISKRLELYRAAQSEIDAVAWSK

Assay [2] concerns the target T2, C-terminal cytoplasmic fragment of the formin FH5 comprising the FH1 and FH2 domains (FH5_Cterm) (Arabidopsis thaliana) (UniProt Q94B77).
T2 sequence: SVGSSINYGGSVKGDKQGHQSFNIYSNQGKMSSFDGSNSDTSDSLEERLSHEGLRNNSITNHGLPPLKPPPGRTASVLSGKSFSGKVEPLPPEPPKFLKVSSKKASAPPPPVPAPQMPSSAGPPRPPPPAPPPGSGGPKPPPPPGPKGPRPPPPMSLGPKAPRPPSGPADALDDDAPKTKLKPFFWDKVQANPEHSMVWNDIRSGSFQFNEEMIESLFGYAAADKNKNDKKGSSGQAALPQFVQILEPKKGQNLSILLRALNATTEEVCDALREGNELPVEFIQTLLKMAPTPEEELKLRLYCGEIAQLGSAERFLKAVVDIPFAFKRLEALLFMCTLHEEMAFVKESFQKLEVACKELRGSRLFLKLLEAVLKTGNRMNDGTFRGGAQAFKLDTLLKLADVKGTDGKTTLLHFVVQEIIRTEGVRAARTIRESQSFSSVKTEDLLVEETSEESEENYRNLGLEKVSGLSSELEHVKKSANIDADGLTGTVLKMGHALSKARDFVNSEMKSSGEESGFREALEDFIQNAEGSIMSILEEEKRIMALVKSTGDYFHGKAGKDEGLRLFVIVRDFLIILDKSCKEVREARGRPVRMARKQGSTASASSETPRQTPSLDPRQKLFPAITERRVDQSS

In assay [3] the target is SH3P2 (AtSH3P2, At4g34660), Arabidopsis thaliana SH3 and BAR domain-containing protein (Arabidopsis thaliana) (UniProt Q8VWF1).

These are yes or no findings as the source states them, for the method shown. Some results given as binding are weak or reduced against the parent protein; the word gives no strength.

B1: SH3P3 (AtSH3P3, At4g18060), Arabidopsis thaliana SH3 and BAR domain-containing protein (protein, UniProt Q8L7W0 1-351)
chain: MDAFRRQASKLRDQVAKQQLAVIKQFSGTGYESSDVMVIDELEMQRHHQLDKLYRSTRSAKEFQRDIVKAAEAFTTIGLRHIEAGTKLSEDCCRYGNENSQNIDENILAKAAAIYGDARKHVDKEQEDFNKLLASQVLDPLRAMVAGSPLEDARHLAQRYSRMRQEAETHATEVSRRQARVREAPIPENVAKLQLAEAKMQELKANMAVLGKEATAALAAVESQQHRLTFQRLVAMVEGEKNYHLRIAAILSDIEAEMVTEKQHKESAPPAIPTENGSEKTSYFLAEVIHPFSAASEKELDLDKGDYIVVRKVSQTGWAEGECKGKAGWFPMAYIEKRQRLPTTNFAAEVY
On to B1, for which the binding entry in assay [1] is on record as “no binding”; in assay [2], “binds”.

B2: SH3P2 (AtSH3P2, At4g34660), Arabidopsis thaliana SH3 and BAR domain-containing protein (protein, UniProt Q8VWF1 1-368)
chain: MDAIRKQASRLREQVARQQQAVFKQFGGGGYGSGLADEAELNQHQKLEKLYISTRAAKHYQRDIVRGVEGYIVTGSKQVEIGTKLSEDSRKYGSENTCTNGNVLTRAALNYGRARAQMEKERGNMLKALGTQVAEPLRAMVLGAPLEDARHLAQRYDRMRQEAEAQATEVARRQAKARESQGNPDILMKLESAEAKLHDLKSNMTILGKEAASALASVEDQQQKLTLERLLSMVESERAYHQRVLQILDQLEGEMVSERQRIEAPSTPSSADSMPPPPSYEEANGVFASQMHDTSTDSMGYFLGEVLFPYHGVTDVELSLSTGEYVVVRKVTGSGWAEGECKGKAGWFPYGYIERRERVLASKVSEVF
For the molecule B2, the binding result in assay [1] is listed as “binds”; in assay [3], “binds”; in assay [2], “no binding”.

Source of the values: publication PMC6888108.
